From paper PMC4336329 (PLoS ONE, 2015)
The whole screen tested about 310,000 compounds, of which about 2,200 (0.71%) showed an effect of 50% or more. The effect is printed as a negative number. The list shows a part of the results.

target: human ether-à-go-go-related gene (hERG) potassium channel (human, UniProt Q12809); assay: primary screen, population patch clamp on CHO cells stably expressing hERG
Sequence (Q12809 whole entry, looked up): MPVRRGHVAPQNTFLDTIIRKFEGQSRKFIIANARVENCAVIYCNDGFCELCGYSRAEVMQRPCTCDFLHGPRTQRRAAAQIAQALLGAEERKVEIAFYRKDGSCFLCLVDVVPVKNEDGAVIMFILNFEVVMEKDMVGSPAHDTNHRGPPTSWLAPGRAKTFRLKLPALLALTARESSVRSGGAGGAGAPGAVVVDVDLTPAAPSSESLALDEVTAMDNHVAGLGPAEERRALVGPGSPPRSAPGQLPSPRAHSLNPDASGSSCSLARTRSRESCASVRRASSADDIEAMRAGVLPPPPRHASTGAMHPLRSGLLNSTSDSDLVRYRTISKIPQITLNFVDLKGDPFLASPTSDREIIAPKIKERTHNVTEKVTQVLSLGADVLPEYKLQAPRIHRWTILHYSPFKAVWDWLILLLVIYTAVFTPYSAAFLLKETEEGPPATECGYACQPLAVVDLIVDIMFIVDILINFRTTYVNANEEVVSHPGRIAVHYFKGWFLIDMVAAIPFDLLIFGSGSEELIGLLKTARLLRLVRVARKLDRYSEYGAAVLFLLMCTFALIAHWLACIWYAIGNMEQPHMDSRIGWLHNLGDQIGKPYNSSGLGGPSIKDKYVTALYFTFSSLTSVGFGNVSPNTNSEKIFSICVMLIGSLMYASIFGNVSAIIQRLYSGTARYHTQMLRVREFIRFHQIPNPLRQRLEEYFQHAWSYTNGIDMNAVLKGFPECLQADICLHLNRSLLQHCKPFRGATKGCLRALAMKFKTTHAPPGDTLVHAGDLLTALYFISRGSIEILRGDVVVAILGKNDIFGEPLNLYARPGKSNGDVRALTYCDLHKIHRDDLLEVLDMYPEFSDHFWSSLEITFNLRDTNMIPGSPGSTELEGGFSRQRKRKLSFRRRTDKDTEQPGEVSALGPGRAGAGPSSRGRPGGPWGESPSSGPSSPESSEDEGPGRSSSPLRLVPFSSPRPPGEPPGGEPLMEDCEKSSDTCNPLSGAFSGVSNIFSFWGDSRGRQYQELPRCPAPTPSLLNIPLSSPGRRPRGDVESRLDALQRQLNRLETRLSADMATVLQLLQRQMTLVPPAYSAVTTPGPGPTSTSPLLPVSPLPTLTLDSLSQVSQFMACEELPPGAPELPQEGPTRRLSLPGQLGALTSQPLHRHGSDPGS

Structure (SMILES)	hERG current change (%, negative = inhibition) at 1uM [%]
COC(=O)c1nnn(-c2ccc(Cl)c(Cl)c2)c1C(=O)OC	8.21
O=C1N/C(=N/Nc2ccccc2)S/C1=C\c1ccccc1	9.05
COc1ccc(CCNS(=O)(=O)c2ccc3oc(C(=O)O)c(C)c3c2)cc1OC	7.89
CCCCOCCCNC(=O)c1ccc(OCC)cc1	-2.36
Cn1nnc2cc(C(=O)NC3CCCCC3)ccc21	2.12
NC(=[NH2+])SCC1=CCS(=O)(=O)C1.[Br-]	13.1
O=C1Cc2cc(S(=O)(=O)N3CCN(c4ccccc4)CC3)ccc2N1	13.5
CC(=O)Nc1ccc(S(=O)(=O)NCc2nc(-c3cccc(C)c3)no2)cc1	14.3
COc1ccc(C2CC(c3cccs3)=NN2C(=O)COC(=O)C2CCCCC2)cc1OC (centres unmarked)	-6.12
COc1ccccc1CCNC(=O)c1ccc(NC(=O)CC2SC(N3CCCCC3)=NC2=O)cc1 (centres unmarked)	18.2
Cc1ccc(N(CC(=O)Nc2ccccc2C(=O)N2CCOCC2)S(C)(=O)=O)cc1	10.9
CNC(C)C#Cc1ccc2oc3cccc(OC)c3c(=O)c2c1 (centres unmarked)	1.28
CCOC(=O)c1c(NC(=O)CSc2nnnn2C)sc(C(=O)N(C)C)c1C	10.7
Cc1ccccc1C(=O)N1CCN(c2ccc(NC(=O)c3ccc4c(c3)OCCO4)cc2)CC1	10.3
O=C(OCn1ncc(Cl)c(Cl)c1=O)c1cccc(C(F)(F)F)c1	3.1
CCn1cc(/C=C/C(=O)Nc2ccc(C)cc2Br)cn1	-1.03
CCC1Sc2ccc(S(=O)(=O)CCC(=O)Nc3ccccc3Br)cc2NC1=O (centres unmarked)	3.16
CCC(=O)Nc1cccc(C2=NN(c3ccccc3)C(c3ccc(OC)cc3)C2)c1 (centres unmarked)	6.78
CC(C)(C)OC(=O)NCCCC1=CC2=CC(=O)C(C)(O)C(=O)C2=CO1 (centres unmarked)	10.5
CC1(OC(=O)C2CCCC2)C(=O)C=C2C=C(c3ccsc3)N(CCc3c[nH]c4ccccc34)C=C2C1=O (centres unmarked)	3.44
O=C(CCc1ccc(Oc2cc([N+](=O)[O-])cc([N+](=O)[O-])c2)cc1)N1CCCCC1	7.53
S=C1NCCOCCNC(=S)NCCOCCOCCN1	18.9

Structure (SMILES)	hERG current change (%, negative = inhibition) at 1uM [%]
Br.O=C(Cn1c(NCCO)nc2ccccc21)c1ccc(Cl)cc1	4.49
O=S1(=O)CCOCCCN1Cc1cccc(C(F)(F)F)c1	10.4
CCOC(=O)c1c(C)cccc1OCC(N)=O	12.8
Cc1ccc(C2CC(=O)NC(SCC(=O)OCc3ccccc3)=C2C#N)o1 (centres unmarked)	8.54
Cc1nnc(SCC(=O)N2CCc3ccccc3C2)s1	12.4
COc1ccc(/C=N/NC(=O)c2nonc2C)cc1	1.72
CC1(C(=O)Nc2nc3ccc(S(C)(=O)=O)cc3s2)CC1(Cl)Cl (centres unmarked)	13.2
CCn1c(SCC(=O)N2CCOCC2)nnc1-c1cccs1	6.02
CCOc1ccc(Nc2cc(=O)oc3ccccc23)cc1	17.1
O=C(O)CCC(=O)Nc1ccc(C(=O)OCC(=O)c2ccc(Cl)cc2)cc1	13.6
COc1ccccc1-n1cnnc1SCC(=O)NC1CCCCC1	16.7
c1ccc(-n2ncc3c(NCc4cccnc4)ncnc32)cc1	-8.45
CC(C)c1ccc(NC(=O)CSc2nc3ccccc3nc2N2CCCC2)cc1	-0.429
COc1ccc(-c2ccnc3nc(/N=C/N(C)C)nn23)cc1	18.2
Cc1ccc(C)c(N2CCN(C(=O)c3ccc(NC4=NC5CS(=O)(=O)CC5S4)cc3)CC2)c1 (centres unmarked)	3.63
Cc1ccc(N=Nc2c(O)[nH]c3ccc(F)cc23)cc1	13.1
O=c1[nH]nc(Cc2ccc(-c3ccc(Cl)cc3)o2)c2ccccc12	6.24
N#CC(C#N)=C/C=C(\Nc1ccc(Cl)cc1)c1ccc(Cl)cc1	0.712
COC(=O)C1=C(C(=O)OC)[N+]2=C3N(C(=O)NC2(C)C)[C@H](CO)C[C@@]32c3ccccc3N(Cc3ccccc3)[C@@H]12	10.6
CC(C)(C)n1nnnc1C(c1cccnc1)N(Cc1ccccc1)Cc1ccco1 (centres unmarked)	1.71
O=C(Nc1ccc(Cl)cc1)Nc1cc(S(=O)(=O)N2CCOCC2)ccc1N1CCCC1	1.7
NS(=O)(=O)c1ccc(S(=O)(=O)N(Cc2ccccc2F)CC2CCCO2)cc1 (centres unmarked)	9.41
